# Data reported in PubChem BioAssay AID493005 (National Center for Advancing Translational Sciences (NCATS), 2010).
# In all, about 340,000 compounds went through this assay and fewer than 10 were called active. Inconclusive means that the source gave no clear call. Such entries were picked first, then a sample of the others. Calls follow the shape of the dose curve; as a rule, active = well fitted inhibition curve with a large enough effect in the main read-out, with a control signal flat (not every such curve was filed as active); inconclusive = small, poorly fitted or top-dose-only effect, or effect the other way, or a change in a side signal; inactive = no such curve, though single readings can be large or run the other way. Potencies of inconclusive entries are doubtful fits and often do not repeat. “Side channel” marks fits to a control or component signal instead of the main read-out.
# Target: Tumor susceptibility gene 101 protein (Homo sapiens) (UniProt Q99816)
# Assay: qHTS Assay for Iinhibitors of HIV-1 Budding by Blocking the Interaction of PTAP/TSG101
# Details: Fluorescence polarization, FITC-PTAP peptide / Tsg101 binding; series mostly up to 115 µM
# Outline: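 Fluorescence polarization binding of Tsg101 binding domain (10 uM final) to FITC-labeled PTAP peptide (50 nM final) in HEPES pH 7.5 buffer with NaCl, Tween 20, EDTA, TCEP. Compounds added before peptide; binding 20 min at RT.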
# Potency is read from the fitted curve at half-maximal effect; tags tell the direction and shape of the fitted curve or compound fluorescence and quenching.
# Chain of UniProt Q99816 (Q99816 whole entry, looked up): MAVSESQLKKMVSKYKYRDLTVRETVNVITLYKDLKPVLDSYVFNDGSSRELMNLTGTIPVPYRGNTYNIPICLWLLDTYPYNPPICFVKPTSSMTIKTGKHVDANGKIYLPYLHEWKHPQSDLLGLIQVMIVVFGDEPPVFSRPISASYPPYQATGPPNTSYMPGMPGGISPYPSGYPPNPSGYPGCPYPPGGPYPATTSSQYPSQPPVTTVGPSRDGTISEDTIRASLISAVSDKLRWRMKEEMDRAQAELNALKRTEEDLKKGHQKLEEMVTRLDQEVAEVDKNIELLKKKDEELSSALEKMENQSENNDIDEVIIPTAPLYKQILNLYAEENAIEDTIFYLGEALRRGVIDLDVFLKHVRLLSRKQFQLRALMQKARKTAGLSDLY
row,Structure (SMILES),Potency
1,Cc1cc2nc(/C(C#N)=C\c3ccc(-c4ccccc4C(=O)O)o3)[nH]c2cc1C,"inconclusive: 39.8 µM [fluorescent, side channel, partial curve, poor fit]"
2,O=C1N=C(N2CCN(c3ccccc3)CC2)S/C1=C\c1cn[nH]c1-c1ccccc1,"inconclusive: 25.1 µM [quencher, side channel, full curve]"
3,C(=N\n1cnnc1)/c1ccc(OCc2ccccc2)cc1,inactive
4,O=c1[nH]c(-[n+]2ccccc2)c(/C=N/NC([S-])=Nc2ccccc2)s1,"inconclusive: 79.4 µM [falling, partial curve, poor fit]"
5,NC(=O)c1c(NC(=O)c2c(F)cccc2F)sc2c1CCN(Cc1ccccc1)C2,"inconclusive: 79.4 µM [fluorescent, side channel, partial curve, poor fit]"
6,Cc1nn(-c2ccccc2)c(N2CCCC2)c1/C=C1\N=C(c2ccc(F)cc2)OC1=O,"inconclusive: 50.1 µM [fluorescent, partial curve, poor fit]"
7,COc1cccc(CNc2cc(CSc3ccc(Cl)cc3)nc(C)n2)c1,inactive
8,CCOC(=O)CC(=O)CSc1nc2ccc(C)cc2cc1C#N,"inconclusive: 50.1 µM [fluorescent, side channel, partial curve, poor fit]"
9,N#C/C(=C/c1ccc(N2CCCCCC2)o1)c1ccc(Cl)cc1,"inconclusive: 17.8 µM [fluorescent, side channel, full curve]"
10,Cn1cccc1-c1cc(C(=O)N/N=C/c2ccccc2Cl)[nH]n1,inactive
11,CN(C)c1ccc(/C=C2\SC(=O)N(CCc3nnc(N)s3)C2=O)cc1,"inconclusive: 15.8 µM [fluorescent, side channel, full curve, poor fit]"
12,CCOC(=O)/C(=C\C=C1/Sc2ccccc2N1CC)C(C)=O,"inconclusive: 56.2 µM [fluorescent, side channel, partial curve, poor fit]"
13,CN1CCc2c(sc3c2C(=O)NC(c2ccco2)N3)C1 (stereo not given),"inconclusive: 79.4 µM [falling, partial curve, poor fit]"
14,N=c1c(S(=O)(=O)c2ccc(Br)cc2)cc2c(=O)n3ccccc3nc2n1Cc1ccccc1,"inconclusive: 56.2 µM [fluorescent, side channel, partial curve, poor fit]"
15,CCCCC(=O)Nc1ccc(C(=O)Nc2ccc(OC)cc2[N+](=O)[O-])cc1,"inconclusive: 56.2 µM [fluorescent, side channel, partial curve, poor fit]"
16,O=C(Nc1ccccc1F)C(=Cc1sc(N2CCOCC2)nc1-c1ccccc1)C(=O)Nc1ccccc1F,"inconclusive: 56.2 µM [fluorescent, side channel, partial curve, poor fit]"
17,O=c1ccc2c(-c3ccccc3S(=O)(=O)O)c3ccc(O)c(O)c3oc-2c1O,"inconclusive: 50.1 µM [quencher, side channel, partial curve]"
18,CCOC(=O)c1c2ccc(OCC(=O)N/N=C/c3ccc(C)cc3)cc2n2ccccc12,"inconclusive: 44.7 µM [fluorescent, side channel, partial curve, poor fit]"

row,Structure (SMILES),Potency
1,O=S(=O)(c1cnc[nH]1)N1CCc2ccccc21,"inconclusive: 79.4 µM [fluorescent, side channel, partial curve, poor fit]"
2,CCN(CC)C(=O)c1ccc(/C=C/c2c[nH]c3ccccc23)[n+](C)c1,"inconclusive: 20 µM [fluorescent, side channel, full curve]"
3,CN1C(=O)c2cccc(NCCCN3C(=O)c4ccccc4C3=O)c2C1=O,"inconclusive: 22.4 µM [fluorescent, side channel, full curve, poor fit]"
4,CCOC(=O)/C(=C/C=C1\Sc2cc(C)c(C)cc2N1CC)C(C)=O,"inconclusive: 39.8 µM [fluorescent, side channel, partial curve]"
5,COc1ccc(F)cc1S(=O)(=O)N1CCCCC1,inactive
6,CC(=O)OCCNc1cc(N2CCN(C)CC2)c2noc3c2c1C(=O)c1ccccc1-3,"inconclusive: 12.6 µM [fluorescent, side channel, partial curve, poor fit]"
7,CCC(C)N1C(=O)/C(=C/c2c(NCCCOC(C)C)nc3c(C)cccn3c2=O)SC1=S (stereo not given),"inconclusive: 39.8 µM [fluorescent, side channel, partial curve, poor fit]"
8,COc1ccc(Cl)cc1NC(=O)c1ccccc1C,inactive
9,COc1cc2c3nnc(-c4ccc(F)cc4)c-3cn(Cc3ccc(F)cc3)c2cc1OC,"inconclusive: 56.2 µM [fluorescent, side channel, partial curve, poor fit]"
10,O=c1oc2cc([N+](=O)[O-])ccc2nc1/C=C(\O)c1cccc(Br)c1,"inconclusive: 89.1 µM [fluorescent, side channel, partial curve]"
11,CCN1/C(=C\C=C(C(C)=O)C(C)=O)Sc2ccccc21,"inconclusive: 56.2 µM [fluorescent, side channel, partial curve, poor fit]"
12,Cc1onc(-c2c(F)cccc2Cl)c1C(=O)OCc1cnc(Cl)s1,inactive
13,CN(C)C=Nc1c(Br)cc(Br)c2nonc12,"inconclusive: 56.2 µM [fluorescent, side channel, partial curve, poor fit]"
14,Cc1nonc1C1CCCN1Cc1nc(-c2ccccc2Cl)oc1C (stereo not given),inactive
15,Clc1ccc(-n2ncc3c(NCc4cccs4)ncnc32)cc1,inactive
16,CN(C)c1ccc(/C=C(\C#N)C(=O)Nc2nc3c(s2)CCN(Cc2ccccc2)C3)cc1,"inconclusive: 56.2 µM [fluorescent, side channel, partial curve, poor fit]"
17,Cc1nc2ccccc2n2c(O)c(CC(=O)O)cc12,"inconclusive: 56.2 µM [fluorescent, side channel, partial curve, poor fit]"
